The results in this text go back to PMC5679597.

Chains of the proteins cited; added tags and fusions are not shown. Residues count along the entry.
UniProt Q12802: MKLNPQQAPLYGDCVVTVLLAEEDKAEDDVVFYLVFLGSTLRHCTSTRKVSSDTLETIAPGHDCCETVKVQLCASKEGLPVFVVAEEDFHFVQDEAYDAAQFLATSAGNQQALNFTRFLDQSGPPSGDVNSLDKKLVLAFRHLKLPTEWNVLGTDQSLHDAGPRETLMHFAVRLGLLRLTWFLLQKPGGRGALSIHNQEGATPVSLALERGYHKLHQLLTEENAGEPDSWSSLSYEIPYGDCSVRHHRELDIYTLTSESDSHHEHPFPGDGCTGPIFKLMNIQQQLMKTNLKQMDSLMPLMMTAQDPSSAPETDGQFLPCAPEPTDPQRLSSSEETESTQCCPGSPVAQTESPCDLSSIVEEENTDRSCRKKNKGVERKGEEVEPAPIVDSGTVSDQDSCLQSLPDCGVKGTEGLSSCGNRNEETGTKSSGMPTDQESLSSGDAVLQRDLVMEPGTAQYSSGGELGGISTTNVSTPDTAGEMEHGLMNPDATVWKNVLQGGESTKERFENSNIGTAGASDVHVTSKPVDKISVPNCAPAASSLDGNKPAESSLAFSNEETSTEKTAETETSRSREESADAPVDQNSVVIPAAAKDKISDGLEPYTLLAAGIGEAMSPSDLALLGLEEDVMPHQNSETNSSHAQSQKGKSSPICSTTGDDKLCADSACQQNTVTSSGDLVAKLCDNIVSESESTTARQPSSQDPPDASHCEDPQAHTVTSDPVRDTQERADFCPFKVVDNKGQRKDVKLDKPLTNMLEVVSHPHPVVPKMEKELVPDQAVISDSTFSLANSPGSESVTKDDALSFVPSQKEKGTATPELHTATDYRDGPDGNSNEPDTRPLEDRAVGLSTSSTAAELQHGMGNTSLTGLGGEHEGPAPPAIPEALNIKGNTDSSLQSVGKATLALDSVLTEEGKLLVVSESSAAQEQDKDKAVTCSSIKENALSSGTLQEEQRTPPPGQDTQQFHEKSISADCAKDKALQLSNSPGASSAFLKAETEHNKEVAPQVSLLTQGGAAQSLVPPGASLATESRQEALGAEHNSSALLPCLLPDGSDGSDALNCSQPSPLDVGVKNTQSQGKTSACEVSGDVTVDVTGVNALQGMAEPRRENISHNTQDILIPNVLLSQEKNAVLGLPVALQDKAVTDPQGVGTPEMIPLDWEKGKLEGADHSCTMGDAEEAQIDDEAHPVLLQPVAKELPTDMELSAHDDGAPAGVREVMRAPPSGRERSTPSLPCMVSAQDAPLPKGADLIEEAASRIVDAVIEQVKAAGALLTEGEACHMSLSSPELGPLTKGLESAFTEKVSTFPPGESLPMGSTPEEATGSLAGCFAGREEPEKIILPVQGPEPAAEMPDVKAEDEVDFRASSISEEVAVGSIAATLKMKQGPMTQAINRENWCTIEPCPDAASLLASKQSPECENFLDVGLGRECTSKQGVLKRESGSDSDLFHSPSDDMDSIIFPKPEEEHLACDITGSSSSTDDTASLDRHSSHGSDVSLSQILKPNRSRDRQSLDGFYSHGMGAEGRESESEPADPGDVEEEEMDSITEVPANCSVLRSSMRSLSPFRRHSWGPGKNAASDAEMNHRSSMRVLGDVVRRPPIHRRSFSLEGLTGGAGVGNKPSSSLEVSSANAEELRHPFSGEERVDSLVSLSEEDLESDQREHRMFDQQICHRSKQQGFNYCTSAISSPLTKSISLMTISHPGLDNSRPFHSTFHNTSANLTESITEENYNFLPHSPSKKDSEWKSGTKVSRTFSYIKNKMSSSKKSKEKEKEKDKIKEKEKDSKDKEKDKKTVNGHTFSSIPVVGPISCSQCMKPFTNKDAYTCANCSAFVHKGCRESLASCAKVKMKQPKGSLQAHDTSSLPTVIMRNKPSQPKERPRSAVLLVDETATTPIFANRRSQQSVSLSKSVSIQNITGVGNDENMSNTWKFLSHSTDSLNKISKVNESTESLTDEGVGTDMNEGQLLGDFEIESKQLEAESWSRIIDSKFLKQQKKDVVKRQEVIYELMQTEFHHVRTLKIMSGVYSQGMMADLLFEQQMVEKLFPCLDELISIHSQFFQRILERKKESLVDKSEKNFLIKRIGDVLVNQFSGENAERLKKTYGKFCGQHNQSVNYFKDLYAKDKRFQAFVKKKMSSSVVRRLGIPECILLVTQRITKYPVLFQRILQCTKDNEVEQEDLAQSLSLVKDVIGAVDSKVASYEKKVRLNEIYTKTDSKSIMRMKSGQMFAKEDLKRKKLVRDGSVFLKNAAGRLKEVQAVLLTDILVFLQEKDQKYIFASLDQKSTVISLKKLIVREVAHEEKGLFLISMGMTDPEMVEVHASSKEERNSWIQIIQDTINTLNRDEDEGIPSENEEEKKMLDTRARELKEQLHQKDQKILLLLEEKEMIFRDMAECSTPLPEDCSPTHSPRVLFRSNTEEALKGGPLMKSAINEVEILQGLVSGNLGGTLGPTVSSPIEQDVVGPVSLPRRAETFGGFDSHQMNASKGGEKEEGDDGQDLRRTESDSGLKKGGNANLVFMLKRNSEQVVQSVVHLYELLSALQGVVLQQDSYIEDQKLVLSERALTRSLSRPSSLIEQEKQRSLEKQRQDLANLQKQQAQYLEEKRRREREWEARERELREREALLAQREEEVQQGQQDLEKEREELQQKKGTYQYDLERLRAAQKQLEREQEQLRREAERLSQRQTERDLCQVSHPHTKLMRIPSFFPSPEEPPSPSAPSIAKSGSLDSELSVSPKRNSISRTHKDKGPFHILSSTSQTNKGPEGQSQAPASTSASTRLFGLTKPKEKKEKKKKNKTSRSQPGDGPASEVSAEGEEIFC
UniProt Q13136: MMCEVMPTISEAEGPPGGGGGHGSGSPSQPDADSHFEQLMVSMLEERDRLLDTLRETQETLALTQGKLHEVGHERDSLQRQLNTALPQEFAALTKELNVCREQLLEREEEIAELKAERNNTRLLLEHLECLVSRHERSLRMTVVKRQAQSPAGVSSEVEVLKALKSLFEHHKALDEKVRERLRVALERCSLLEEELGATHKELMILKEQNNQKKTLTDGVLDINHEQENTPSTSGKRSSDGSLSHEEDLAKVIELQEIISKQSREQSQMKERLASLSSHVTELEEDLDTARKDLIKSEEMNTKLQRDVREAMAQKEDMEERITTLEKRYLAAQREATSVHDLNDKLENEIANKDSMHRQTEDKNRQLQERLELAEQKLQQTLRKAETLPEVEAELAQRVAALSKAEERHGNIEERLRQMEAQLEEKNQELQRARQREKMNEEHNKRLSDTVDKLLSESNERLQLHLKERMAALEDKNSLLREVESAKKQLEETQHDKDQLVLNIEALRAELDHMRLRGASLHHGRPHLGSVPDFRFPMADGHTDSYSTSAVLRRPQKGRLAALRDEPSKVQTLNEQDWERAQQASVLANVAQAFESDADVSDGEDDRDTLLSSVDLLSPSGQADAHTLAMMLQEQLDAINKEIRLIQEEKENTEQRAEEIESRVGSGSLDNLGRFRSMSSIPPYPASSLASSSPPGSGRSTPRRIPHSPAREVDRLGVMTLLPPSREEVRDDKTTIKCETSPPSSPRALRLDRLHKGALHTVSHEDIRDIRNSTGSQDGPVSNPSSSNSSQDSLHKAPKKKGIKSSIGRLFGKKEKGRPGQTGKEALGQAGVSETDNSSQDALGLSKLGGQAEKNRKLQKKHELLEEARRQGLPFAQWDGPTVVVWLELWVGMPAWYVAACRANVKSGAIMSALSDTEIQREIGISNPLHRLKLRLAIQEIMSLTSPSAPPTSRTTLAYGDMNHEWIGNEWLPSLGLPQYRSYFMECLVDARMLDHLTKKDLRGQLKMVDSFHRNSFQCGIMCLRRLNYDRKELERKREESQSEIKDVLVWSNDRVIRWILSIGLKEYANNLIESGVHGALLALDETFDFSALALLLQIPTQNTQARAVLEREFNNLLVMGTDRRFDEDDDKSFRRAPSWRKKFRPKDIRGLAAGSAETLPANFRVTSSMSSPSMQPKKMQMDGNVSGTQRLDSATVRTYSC
UniProt Q15375, residues 28-998: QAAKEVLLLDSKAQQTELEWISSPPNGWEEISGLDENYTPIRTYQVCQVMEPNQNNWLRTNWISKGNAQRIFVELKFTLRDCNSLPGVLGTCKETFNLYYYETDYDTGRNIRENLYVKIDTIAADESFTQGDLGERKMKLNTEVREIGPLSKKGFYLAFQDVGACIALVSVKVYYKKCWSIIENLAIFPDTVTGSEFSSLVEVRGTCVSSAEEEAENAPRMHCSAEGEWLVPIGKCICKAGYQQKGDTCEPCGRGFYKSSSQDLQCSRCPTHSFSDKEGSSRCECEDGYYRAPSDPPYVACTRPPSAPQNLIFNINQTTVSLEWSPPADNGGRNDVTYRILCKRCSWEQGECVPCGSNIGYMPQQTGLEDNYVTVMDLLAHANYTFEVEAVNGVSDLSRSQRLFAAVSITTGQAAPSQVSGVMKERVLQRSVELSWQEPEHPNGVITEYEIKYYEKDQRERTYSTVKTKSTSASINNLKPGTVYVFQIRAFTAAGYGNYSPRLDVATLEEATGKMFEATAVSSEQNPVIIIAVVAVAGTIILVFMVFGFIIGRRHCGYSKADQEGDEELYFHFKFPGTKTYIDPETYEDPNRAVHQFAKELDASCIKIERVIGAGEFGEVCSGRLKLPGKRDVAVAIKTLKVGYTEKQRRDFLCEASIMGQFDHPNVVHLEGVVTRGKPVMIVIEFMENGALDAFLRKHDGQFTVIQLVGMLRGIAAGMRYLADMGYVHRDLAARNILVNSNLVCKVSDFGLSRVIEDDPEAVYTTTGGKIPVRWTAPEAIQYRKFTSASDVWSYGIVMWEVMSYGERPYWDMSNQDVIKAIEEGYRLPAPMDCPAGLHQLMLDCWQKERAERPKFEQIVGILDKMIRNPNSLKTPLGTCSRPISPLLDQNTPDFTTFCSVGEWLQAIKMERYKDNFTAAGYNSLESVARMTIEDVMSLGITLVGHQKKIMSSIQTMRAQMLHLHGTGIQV

Assay in all cases: pull-down; GFP pull-down: GFP-tagged LNX constructs transfected into HEK 293 cells (HEK 293T in Fig 3A) alone or with the partner, captured on GFP-Trap_M beads, western blot; NaCl in the wash up to 500 mM in some cases
The target of test [1] is T1, GFP-tagged LNX1p80 (Ligand of Numb protein X1, p80 isoform) (mouse) (UniProt O70263).
T1 sequence: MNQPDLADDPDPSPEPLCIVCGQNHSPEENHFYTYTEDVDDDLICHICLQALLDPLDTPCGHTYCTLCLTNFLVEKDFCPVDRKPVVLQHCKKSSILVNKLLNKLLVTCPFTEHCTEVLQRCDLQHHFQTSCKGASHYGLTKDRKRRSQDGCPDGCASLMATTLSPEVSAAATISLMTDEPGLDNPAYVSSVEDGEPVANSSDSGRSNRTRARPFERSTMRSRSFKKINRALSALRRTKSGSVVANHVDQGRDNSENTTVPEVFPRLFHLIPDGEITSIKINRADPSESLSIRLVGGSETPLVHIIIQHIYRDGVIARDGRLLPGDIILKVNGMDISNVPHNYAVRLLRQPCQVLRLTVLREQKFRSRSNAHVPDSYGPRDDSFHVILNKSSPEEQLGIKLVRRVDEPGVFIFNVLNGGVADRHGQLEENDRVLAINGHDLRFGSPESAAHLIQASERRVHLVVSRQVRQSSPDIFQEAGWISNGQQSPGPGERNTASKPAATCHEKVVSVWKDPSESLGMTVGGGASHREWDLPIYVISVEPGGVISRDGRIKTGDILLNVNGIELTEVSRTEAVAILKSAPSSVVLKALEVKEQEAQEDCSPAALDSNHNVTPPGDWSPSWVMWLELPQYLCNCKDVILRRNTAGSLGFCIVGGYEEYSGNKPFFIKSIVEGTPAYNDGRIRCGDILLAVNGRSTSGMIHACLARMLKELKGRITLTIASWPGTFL

In test [2] the target is T2, GFP-LNX1 PDZ2 (aa377-470) (mouse) (UniProt O70263).
T2 sequence: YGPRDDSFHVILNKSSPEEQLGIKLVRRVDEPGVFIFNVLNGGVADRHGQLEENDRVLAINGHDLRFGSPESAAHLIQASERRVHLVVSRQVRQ

For test [3], the target named is T3, GFP-LNX1 PDZ1-4 fragment (aa268-728) (mouse) (UniProt O70263).
T3 sequence: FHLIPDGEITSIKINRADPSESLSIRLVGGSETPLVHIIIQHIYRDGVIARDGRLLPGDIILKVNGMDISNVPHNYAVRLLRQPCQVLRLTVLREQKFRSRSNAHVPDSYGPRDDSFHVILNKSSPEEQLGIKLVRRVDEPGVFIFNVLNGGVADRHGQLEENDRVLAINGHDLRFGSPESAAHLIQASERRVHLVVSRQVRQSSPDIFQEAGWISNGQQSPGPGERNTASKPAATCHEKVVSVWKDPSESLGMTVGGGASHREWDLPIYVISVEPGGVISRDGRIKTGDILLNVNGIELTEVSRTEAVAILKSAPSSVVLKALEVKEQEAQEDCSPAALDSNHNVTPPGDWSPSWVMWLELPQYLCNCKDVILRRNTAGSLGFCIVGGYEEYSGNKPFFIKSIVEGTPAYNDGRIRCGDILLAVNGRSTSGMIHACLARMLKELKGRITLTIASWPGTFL

Test [4] has as its target T4, GFP-tagged LNX2 (mouse) (UniProt Q91XL2).
T4 sequence: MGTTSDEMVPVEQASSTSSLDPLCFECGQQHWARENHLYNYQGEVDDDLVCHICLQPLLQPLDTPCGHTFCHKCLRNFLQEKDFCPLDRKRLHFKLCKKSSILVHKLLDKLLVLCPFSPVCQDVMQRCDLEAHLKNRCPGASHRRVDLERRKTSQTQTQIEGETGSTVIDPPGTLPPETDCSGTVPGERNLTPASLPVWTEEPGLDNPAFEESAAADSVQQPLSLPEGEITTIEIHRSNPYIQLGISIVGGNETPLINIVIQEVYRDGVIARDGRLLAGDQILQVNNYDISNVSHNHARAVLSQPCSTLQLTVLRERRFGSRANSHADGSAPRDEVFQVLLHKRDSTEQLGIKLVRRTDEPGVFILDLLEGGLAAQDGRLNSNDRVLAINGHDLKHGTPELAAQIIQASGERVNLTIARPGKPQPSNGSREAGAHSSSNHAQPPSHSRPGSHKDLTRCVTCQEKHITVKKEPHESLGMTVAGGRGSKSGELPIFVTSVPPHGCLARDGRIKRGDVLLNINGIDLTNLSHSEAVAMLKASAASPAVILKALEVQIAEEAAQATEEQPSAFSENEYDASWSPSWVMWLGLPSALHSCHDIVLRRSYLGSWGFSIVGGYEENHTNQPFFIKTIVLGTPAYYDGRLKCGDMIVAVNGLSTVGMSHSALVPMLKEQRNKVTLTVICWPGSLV

No constants are given. Whether binding was seen depends on the method and setting. In cells and extracts the contact can be indirect. Some binding calls cover weakened binding; strength is not graded here. Sequences can lack the tags named with a protein.

With “AKAP13, transfected, HA or GST epitope-tagged (Fig 1B) (from UniProt Q12802 1-2813)”, the binding entry was “binds” in test [1], “binds” in test [2], “binds” in test [3] and “no binding” in test [4].
On to “Liprin-alpha-1 (PPFIA1), endogenous (from UniProt Q13136 1-1202)”, for which the binding result in test [1] was “binds”; in test [2], “binds”; in test [3], “binds”; in test [4], “no binding”.
On to “EphA7, transfected, HA or GST epitope-tagged (Fig 1B) (from UniProt Q15375 28-998) (receptor)”, for which the binding result in test [1] and in test [4] was “binds” throughout.

B1: MID2, transfected, HA or GST epitope-tagged (Fig 1B) (protein, UniProt Q9UJV3-2 1-705)
chain: MGESPASVVLNASGGLFSLKMETLESELTCPICLELFEDPLLLPCAHSLCFSCAHRILVSSCSSGESIEPITAFQCPTCRYVISLNHRGLDGLKRNVTLQNIIDRFQKASVSGPNSPSESRRERTYRPTTAMSSERIACQFCEQDPPRDAVKTCITCEVSYCDRCLRATHPNKKPFTSHRLVEPVPDTHLRGITCLDHENEKVNMYCVSDDQLICALCKLVGRHRDHQVASLNDRFEKLKQTLEMNLTNLVKRNSELENQMAKLIQICQQVEVNTAMHEAKLMEECDELVEIIQQRKQMIAVKIKETKVMKLRKLAQQVANCRQCLERSTVLINQAEHILKENDQARFLQSAKNIAERVAMATASSQVLIPDINFNDAFENFALDFSREKKLLEGLDYLTAPNPPSIREELCTASHDTITVHWISDDEFSISSYELQYTIFTGQANFISLYNSVDSWMIVPNIKQNHYTVHGLQSGTRYIFIVKAINQAGSRNSEPTRLKTNSQPFKLDPKMTHKKLKISNDGLQMEKDESSLKKSHTPERFSGTGCYGAAGNIFIDSGCHYWEVVMGSSTWYAIGIAYKSAPKNEWIGKNASSWVFSRCNSNFVVRHNNKEMLVDVPPHLKRLGVLLDYDNNMLSFYDPANSLHLHTFDVTFILPVCPTFTIWNKSLMILSGLPAPDFIDYPERQECNCRPQESPYVSGMKTCH
Regarding B1, the figures for the binding entry in test [1], in test [3] and in test [4] were “binds”, “binds” and “no binding”, respectively.

B2: FLAG-MID2 full length (aa 1-705) (protein, UniProt Q9UJV3-2 1-705)
chain: MGESPASVVLNASGGLFSLKMETLESELTCPICLELFEDPLLLPCAHSLCFSCAHRILVSSCSSGESIEPITAFQCPTCRYVISLNHRGLDGLKRNVTLQNIIDRFQKASVSGPNSPSESRRERTYRPTTAMSSERIACQFCEQDPPRDAVKTCITCEVSYCDRCLRATHPNKKPFTSHRLVEPVPDTHLRGITCLDHENEKVNMYCVSDDQLICALCKLVGRHRDHQVASLNDRFEKLKQTLEMNLTNLVKRNSELENQMAKLIQICQQVEVNTAMHEAKLMEECDELVEIIQQRKQMIAVKIKETKVMKLRKLAQQVANCRQCLERSTVLINQAEHILKENDQARFLQSAKNIAERVAMATASSQVLIPDINFNDAFENFALDFSREKKLLEGLDYLTAPNPPSIREELCTASHDTITVHWISDDEFSISSYELQYTIFTGQANFISLYNSVDSWMIVPNIKQNHYTVHGLQSGTRYIFIVKAINQAGSRNSEPTRLKTNSQPFKLDPKMTHKKLKISNDGLQMEKDESSLKKSHTPERFSGTGCYGAAGNIFIDSGCHYWEVVMGSSTWYAIGIAYKSAPKNEWIGKNASSWVFSRCNSNFVVRHNNKEMLVDVPPHLKRLGVLLDYDNNMLSFYDPANSLHLHTFDVTFILPVCPTFTIWNKSLMILSGLPAPDFIDYPERQECNCRPQESPYVSGMKTCH
Turning to B2, the binding entry in test [1] was “binds”.

B3: FLAG-MID2 Coiled coil-COS domain (aa 222-406) (domain or fragment, UniProt Q9UJV3-2 222-406)
chain: GRHRDHQVASLNDRFEKLKQTLEMNLTNLVKRNSELENQMAKLIQICQQVEVNTAMHEAKLMEECDELVEIIQQRKQMIAVKIKETKVMKLRKLAQQVANCRQCLERSTVLINQAEHILKENDQARFLQSAKNIAERVAMATASSQVLIPDINFNDAFENFALDFSREKKLLEGLDYLTAPNPPS
Turning to B3, the binding entry in test [1] is “no binding”.

B4: FLAG-MID2 FN3 domain-SPRY domain (aa 395-705) (domain or fragment, UniProt Q9UJV3-2 395-705)
chain: GLDYLTAPNPPSIREELCTASHDTITVHWISDDEFSISSYELQYTIFTGQANFISLYNSVDSWMIVPNIKQNHYTVHGLQSGTRYIFIVKAINQAGSRNSEPTRLKTNSQPFKLDPKMTHKKLKISNDGLQMEKDESSLKKSHTPERFSGTGCYGAAGNIFIDSGCHYWEVVMGSSTWYAIGIAYKSAPKNEWIGKNASSWVFSRCNSNFVVRHNNKEMLVDVPPHLKRLGVLLDYDNNMLSFYDPANSLHLHTFDVTFILPVCPTFTIWNKSLMILSGLPAPDFIDYPERQECNCRPQESPYVSGMKTCH
For B4, the binding result in test [1] is recorded as “binds”.

B5: FLAG-MID2 RING domain - BBOX type Zinc finger-2 (aa 1-235) (domain or fragment, UniProt Q9UJV3-2 1-235)
chain: MGESPASVVLNASGGLFSLKMETLESELTCPICLELFEDPLLLPCAHSLCFSCAHRILVSSCSSGESIEPITAFQCPTCRYVISLNHRGLDGLKRNVTLQNIIDRFQKASVSGPNSPSESRRERTYRPTTAMSSERIACQFCEQDPPRDAVKTCITCEVSYCDRCLRATHPNKKPFTSHRLVEPVPDTHLRGITCLDHENEKVNMYCVSDDQLICALCKLVGRHRDHQVASLNDR
B5: the binding entry in test [1] is reported as “no binding”.

B6: TRIM27, transfected, epitope-tagged (aa 1-513) (protein, UniProt P14373-1 1-513)
chain: MASGSVAECLQQETTCPVCLQYFAEPMMLDCGHNICCACLARCWGTAETNVSCPQCRETFPQRHMRPNRHLANVTQLVKQLRTERPSGPGGEMGVCEKHREPLKLYCEEDQMPICVVCDRSREHRGHSVLPLEEAVEGFKEQIQNQLDHLKRVKDLKKRRRAQGEQARAELLSLTQMEREKIVWEFEQLYHSLKEHEYRLLARLEELDLAIYNSINGAITQFSCNISHLSSLIAQLEEKQQQPTRELLQDIGDTLSRAERIRIPEPWITPPDLQEKIHIFAQKCLFLTESLKQFTEKMQSDMEKIQELREAQLYSVDVTLDPDTAYPSLILSDNLRQVRYSYLQQDLPDNPERFNLFPCVLGSPCFIAGRHYWEVEVGDKAKWTIGVCEDSVCRKGGVTSAPQNGFWAVSLWYGKEYWALTSPMTALPLRTPLQRVGIFLDYDAGEVSFYNVTERCHTFTFSHATFCGPVRPYFSLSYSGGKSAAPLIICPMSGIDGFSGHVGNHGHSMETSP
For B6, in test [1], the binding entry is “binds”.
